The campaign covered roughly 350,000 compounds. About 31,000 (8.9%) were called active. Inconclusive means that the source gave no clear call. Such entries were picked first, then a sample of the others. Calls come from the whole dose curve; as a rule, active = well fitted inhibition curve with a large enough effect; inconclusive = small, poorly fitted or top-dose-only effect; inactive = no such curve, though single readings can be large or run the other way. Potencies beside an inconclusive call are fits to weak or partial responses and may not hold up.
The molecules below were run against Histone-lysine N-methyltransferase EHMT2 (Homo sapiens) (UniProt Q96KQ7) (assay: qHTS Assay for Inhibitors of Histone Lysine Methyltransferase G9a). Conditions: G9a H3K9 monomethylation, AlphaScreen, 2 h; activity, negative = inhibition: at 59 µM (top of the series) unless noted.
Chain of UniProt Q96KQ7 (Q96KQ7 whole entry, looked up): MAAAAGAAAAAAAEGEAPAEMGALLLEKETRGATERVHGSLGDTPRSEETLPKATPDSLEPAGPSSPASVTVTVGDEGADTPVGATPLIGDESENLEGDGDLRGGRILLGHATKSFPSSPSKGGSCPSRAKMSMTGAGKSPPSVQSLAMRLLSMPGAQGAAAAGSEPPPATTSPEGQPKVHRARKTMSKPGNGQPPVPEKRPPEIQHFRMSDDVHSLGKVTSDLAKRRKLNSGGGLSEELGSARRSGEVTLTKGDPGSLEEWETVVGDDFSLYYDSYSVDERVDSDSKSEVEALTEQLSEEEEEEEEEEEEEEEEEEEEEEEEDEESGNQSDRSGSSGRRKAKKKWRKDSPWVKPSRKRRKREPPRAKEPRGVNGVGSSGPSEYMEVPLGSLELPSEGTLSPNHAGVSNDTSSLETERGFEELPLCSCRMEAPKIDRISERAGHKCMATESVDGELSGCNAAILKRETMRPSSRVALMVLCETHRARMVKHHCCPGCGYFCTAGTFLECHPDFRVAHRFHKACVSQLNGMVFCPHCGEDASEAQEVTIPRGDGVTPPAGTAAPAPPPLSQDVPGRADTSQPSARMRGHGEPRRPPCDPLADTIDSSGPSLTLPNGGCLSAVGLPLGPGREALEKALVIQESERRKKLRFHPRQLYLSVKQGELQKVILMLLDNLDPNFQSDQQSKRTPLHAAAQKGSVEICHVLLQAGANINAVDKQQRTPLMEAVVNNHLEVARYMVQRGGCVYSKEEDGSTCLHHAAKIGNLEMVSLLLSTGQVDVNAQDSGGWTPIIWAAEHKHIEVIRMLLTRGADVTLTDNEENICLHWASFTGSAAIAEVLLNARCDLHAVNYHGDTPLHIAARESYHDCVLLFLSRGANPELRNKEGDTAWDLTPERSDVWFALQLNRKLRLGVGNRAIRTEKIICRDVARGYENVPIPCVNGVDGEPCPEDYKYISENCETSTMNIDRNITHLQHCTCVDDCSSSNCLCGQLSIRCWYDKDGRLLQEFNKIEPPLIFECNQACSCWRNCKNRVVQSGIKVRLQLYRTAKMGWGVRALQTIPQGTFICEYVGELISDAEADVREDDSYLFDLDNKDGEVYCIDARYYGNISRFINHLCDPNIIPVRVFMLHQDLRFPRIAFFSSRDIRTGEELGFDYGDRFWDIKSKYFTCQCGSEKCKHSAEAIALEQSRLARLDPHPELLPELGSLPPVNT
In short: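 AlphaScreen read-out: biotin-H3K9 peptide (500 nM) methylation by 20 nM enzyme with 20 uM SAM, 2 h at room temperature after 15 min compound preincubation; anti-monomethyl H3K9 antibody plus donor/acceptor beads, 10 min dark.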
With CC1(C)C2CC=C(/C=N/NC(=O)c3ccccc3Br)C1C2 (stereo not given) the “activity, negative = inhibition” value was inactive: 30.8%.
CN(C)c1ccc(C(=S)N2CCCCCC2)cc1 was tested, and the Potency was active: 8.91 µM.
With COc1cc(NC(=O)CSc2ccc(-c3ccco3)nn2)cc(OC)c1 the Potency was inconclusive: 39.8 µM [inhibitor, single point].
With O=[N+]([O-])c1cc(CN2CCOCC2)c2cccnc2c1O the Potency was inconclusive: 1.78 µM [inhibitor, full curve, poor fit].
COc1ccc(CCNC(=O)c2ccc3c(c2)nc2n3CCOC2)cc1OC was tested, and the “activity, negative = inhibition” value was inactive: 8.83%.
In the case of COc1ccc(NC(=S)Nc2cccc(C(F)(F)F)c2)c(C)c1, the “activity, negative = inhibition” value is reported as inactive: 7.55% [at 102 µM].
With O=[N+]([O-])c1ncccc1OCc1ccc(Br)cc1F the “activity, negative = inhibition” value was inactive: -4.51% [at 102 µM].
In the case of Cc1nnc(N2CCC(C(=O)NCc3ccc(N(C)C)cc3)CC2)c2nn(-c3ccccc3)c(C)c12, the “activity, negative = inhibition” value is reported as inactive: -44.3%.
In the case of Cc1ccccc1N1C(=O)CC(Sc2nnc(-c3ccccc3)o2)C1=O (stereo not given), the Potency is reported as active: 7.94 µM.
With O=C(NCCCO)C(=O)Nc1c2c(nn1-c1ccc(F)cc1)CSC2 the Potency was active: 11.2 µM.
With CC(=O)Cc1nsc(Nc2ccccc2)n1 the Potency was active: 79.4 µM.
For CC1CCN(CCCNC(=O)c2cc3sccc3n2C)CC1, the Potency was inconclusive: 79.4 µM [inhibitor, single point].
In the case of O=C(Cc1ccc(Cl)c(Cl)c1)Nc1cccc2ncccc12, the Potency is reported as inconclusive: 39.8 µM [inhibitor, partial curve, poor fit].
For CCOc1ccc(S(=O)(=O)n2cnc3ccccc32)cc1, the Potency was inconclusive: 10 µM [inhibitor, single point].
For O=C(Nc1ccc(Cl)cc1Cl)c1cccc(N2C(=O)C=CC2=O)c1, the Potency was inconclusive: 70.8 µM [inhibitor, partial curve, poor fit].
With O=C(Nc1cccc(S(=O)(=O)N2CCCCC2)c1)c1ccc([N+](=O)[O-])o1 the Potency was inconclusive: 89.1 µM [inhibitor, single point].
For CCOC(=O)c1cnc(SCC(=O)NCc2cccs2)nc1N, the Potency was inconclusive: 1.41 µM [inhibitor, single point].
With CCCn1nnc(NC(=O)C(c2ccccc2)c2ccccc2)n1 the “activity, negative = inhibition” value was inactive: 7.78%.
CC1(C)NC(=O)N(CC(=O)OCC(=O)N2CCN(S(=O)(=O)c3ccccc3)CC2)C1=O was tested, and the “activity, negative = inhibition” value was inactive: -3.16% [at 102 µM].
For CN(CC(=O)Nc1cccc(C#N)c1)S(=O)(=O)c1cc2c(cc1Cl)NC(=O)CO2, the “activity, negative = inhibition” value was inactive: 9.84%.
In the case of COc1nccnc1NS(=O)(=O)c1ccc(NC(=S)NC(=O)c2cccc(F)c2)cc1, the Potency is reported as inconclusive: 39.8 µM [inhibitor, single point].
In the case of C[C@H]1CC[C@H]2C(=O)N3[C@H](c4ccccc4Br)[C@@H](C)CC[C@H]3C(=O)N2[C@@H]1c1ccccc1Br, the Potency is reported as active: 50.1 µM.
In the case of COC(=O)c1c(NC(NC(=O)C(C)C)C(Cl)(Cl)Cl)sc2c1CCC2 (stereo not given), the Potency is reported as inconclusive: 89.1 µM [inhibitor, single point].
With COC(=O)C1=C(C)N(c2cccc(Cl)c2)C(=O)C1 the Potency was inconclusive: 15.8 µM [inhibitor, partial curve].
O=C(CSc1nc2ccccc2n1Cc1cccc(Cl)c1)N1CCN(c2ccc(F)cc2)CC1 was tested, and the “activity, negative = inhibition” value was inactive: 34.3%.
In the case of NC(=O)CC(NC(=O)c1ccccc1)c1ccc(NCc2ccc(F)cc2)c([N+](=O)[O-])c1 (stereo not given), the activity, negative = inhibition is reported as inconclusive: -74.1% [inhibitor].
With COc1ccc(CCNc2nc(-c3ccc(NC(C)=O)cc3)cs2)cc1OC the Potency was inconclusive: 12.6 µM [inhibitor, partial curve, poor fit].
In the case of O=C(O)CC/C(=C\c1ccc(N2CCOCC2)c([N+](=O)[O-])c1)c1nc2ccccc2s1, the Potency is reported as inconclusive: 44.7 µM [inhibitor, partial curve, poor fit].
For NC(N)=NS(=O)(=O)c1ccc(NC(=S)NC(=O)/C=C/c2cccs2)cc1, the Potency was inconclusive: 50.1 µM [inhibitor, partial curve, poor fit].
With COc1ccc2c(CNCc3cccs3)c(C(=O)O)n(Cc3ccccc3C)c2c1 the “activity, negative = inhibition” value was inactive: -19.2%.
With Cc1ccccc1C(=O)NN1CC(C(=O)OCc2ccc(Cl)c(Cl)c2)CC1=O (stereo not given) the Potency was inconclusive: 79.4 µM [inhibitor, single point].
In the case of Cc1ccc(C(=O)c2cc3c(cc2[N+](=O)[O-])OCCO3)cc1, the activity, negative = inhibition is reported as inconclusive: -67.2% [inhibitor].
In the case of CCN(CC)C(=O)Cn1cc(C(=O)C(=O)N2CCc3ccccc32)c2ccccc21, the Potency is reported as inconclusive: 1.58 µM [inhibitor, full curve, poor fit].
For COc1cccc(CCNC(=O)CC2C(=O)NCCN2Cc2ccc(Cl)c(F)c2)c1 (stereo not given), the Potency was inconclusive: 31.6 µM [inhibitor, full curve].
In the case of O=C(CSc1ccc2c(c1)OCCO2)Nc1ccc(Br)cn1, the Potency is reported as active: 44.7 µM.
With CC(C)CC(=O)Nc1ccccc1N1CCOCC1 the Potency was inconclusive: 89.1 µM [inhibitor, partial curve, poor fit].
For CS(=O)(=O)N1CCC(C(=O)NCc2ccc(Cl)cc2)CC1, the Potency was inconclusive: 89.1 µM [inhibitor, single point].
Cc1ccc2nc(SCC(=O)c3ccc4c(c3)OCO4)[nH]c2c1 was tested, and the activity, negative = inhibition was inconclusive: -93.9% [inhibitor].
For CC(=O)C1=C(C)NC(SCC(=O)c2ccc(F)cc2)=C(C#N)C1c1ccco1 (stereo not given), the Potency was inconclusive: 31.6 µM [inhibitor, single point].
With Cc1ccc(Cl)cc1NC(=O)N1CCC(CN2CCc3ccccc3C2)CC1 the “activity, negative = inhibition” value was inactive: -26.2%.
For CCOC(=O)c1[nH]c(C)c(C(=O)NC(C)CC)c1C (stereo not given), the Potency was inconclusive: 35.5 µM [inhibitor, partial curve].
With COC(=O)c1ccc2c(=O)n(CCCCCC(=O)N3CCN(c4cccc(C)c4C)CC3)c(=O)[nH]c2c1 the Potency was inconclusive: 31.6 µM [inhibitor, single point].
OCCCc1nc2n(n1)C(c1ccccc1)C=C(c1ccc(F)cc1)N2 (stereo not given) was tested, and the Potency was inconclusive: 35.5 µM [inhibitor, single point].
For CCCCn1c(N)c(N(CC(C)C)C(=O)CSc2nnc(-c3ccc(Cl)cc3)o2)c(=O)[nH]c1=O, the Potency was inconclusive: 44.7 µM [inhibitor, partial curve].
CCOc1cc(CNc2ccc(O)cc2)cc(Cl)c1OCc1ccccc1 was tested, and the Potency was inconclusive: 12.6 µM [inhibitor, partial curve, poor fit].
NC(=O)c1ccsc1NC(=O)c1ccc(S(=O)(=O)N2CCCCC2)cc1 was tested, and the Potency was inconclusive: 79.4 µM [inhibitor, partial curve, poor fit].
In the case of Cn1cccc1-c1cc2n(n1)CCC(=O)N2CC(=O)Nc1ccc(F)cc1Cl, the Potency is reported as inconclusive: 31.6 µM [inhibitor, single point].
For CC(NC(=O)C(C)(C)C)C(c1cccs1)N1CCN(Cc2ccccc2)CC1 (stereo not given), the Potency was inconclusive: 89.1 µM [inhibitor, single point].
For CN(CC1CCOCC1)C(=O)CC1C(=O)NCCN1Cc1cccc(Oc2ccccc2)c1 (stereo not given), the Potency was active: 35.5 µM.
In the case of Cc1ccc(S(=O)(=O)N(CC(O)Cn2c3ccccc3c3ccccc32)c2cccc(C(=O)NCCO)c2)cc1 (stereo not given), the “activity, negative = inhibition” value is reported as inactive: -1.22%.
In the case of O=C(O)c1cnn(-c2nc(-c3cccc([N+](=O)[O-])c3)cs2)c1C(F)(F)F, the activity, negative = inhibition is reported as inactive: -9.86% [at 2.33 µM].
With S=C(NCc1ccco1)NCC1CCCO1 (stereo not given) the “activity, negative = inhibition” value was inactive: -7.31%.
In the case of Cn1c(-c2ccc(C(C)(C)C)cc2)n[nH]c1=S, the Potency is reported as active: 2 µM.
CCCC(c1nnnn1C1CCCC1)N1CCN(c2ccccc2F)CC1 (stereo not given) was tested, and the Potency was active: 50.1 µM.
For COc1ccc(CCNC(=O)C2CC3Cn4c(nc5cc6ccccc6cc54)C3N2C)cc1 (stereo not given), the activity, negative = inhibition was inconclusive: -65.3% [inhibitor].
Clc1ccccc1CSc1nnc([C@@H]2CCCN2)o1 was tested, and the Potency was inconclusive: 28.2 µM [inhibitor, single point].
With COc1ccccc1CN1CCNC(=O)C1CC(=O)NCCc1cnccn1 (stereo not given) the Potency was inconclusive: 89.1 µM [inhibitor, single point].
In the case of Cn1c(N)c(C(=O)Nc2ccccc2F)sc1=S, the Potency is reported as active: 50.1 µM.
COc1ccc(C)cc1NC(=O)c1cc(S(=O)(=O)N2CCCC2)cn1C was tested, and the “activity, negative = inhibition” value was inactive: -122% [at 102 µM].
In the case of CCN(CC)C(=O)c1sc(N)c(C#N)c1C, the Potency is reported as inconclusive: 28.2 µM [inhibitor, single point].
In the case of CCn1c(=O)c2cc(C(=O)NCCN(C)C)sc2c2ccccc21, the Potency is reported as inconclusive: 89.1 µM [inhibitor, single point].
With COc1ccc(-c2nc3n(n2)C(c2ccccc2)C(C(=O)Nc2cccnc2)=C(C)N3)cc1 (stereo not given) the “activity, negative = inhibition” value was inactive: -29.7%.
For CCOC(=O)Cn1c(=O)oc2cc(S(=O)(=O)Nc3cc(Cl)ccc3OC)ccc21, the Potency was inconclusive: 89.1 µM [inhibitor, partial curve, poor fit].
With O=C1NCCN/C1=C\C(=O)c1ccc(Cl)cc1 the Potency was inconclusive: 44.7 µM [inhibitor, partial curve, poor fit].
With COc1ccc(CNC(=O)CCS(=O)(=O)Cc2ccc(C)cc2)c(OC)c1 the “activity, negative = inhibition” value was inactive: 6.79%.
With CN1CCN(S(=O)(=O)c2ccc(=O)[nH]c2)CC1 the activity, negative = inhibition was inactive: -17.7% [at 12.7 µM].
For CCOC(=O)C1C(C(=O)OC)=C(C2=CCCCC2)c2ccccc2N1S(=O)(=O)C(F)(F)F (stereo not given), the Potency was inconclusive: 15.8 µM [inhibitor, partial curve].
With COc1ccc(/C(O)=C2/C(=O)C(=O)N(CCN(C)C)C2c2cccnc2)cc1OC (stereo not given) the Potency was inconclusive: 79.4 µM [inhibitor, single point].
For COc1ccc(NC(=O)COC(=O)c2cc(C)oc2C)c([N+](=O)[O-])c1, the Potency was inconclusive: 1.41 µM [inhibitor, single point].
For CCc1cc[n+](-c2nc([O-])sc2C=O)cc1, the Potency was inconclusive: 39.8 µM [inhibitor, single point].
% is set by controls: 0 for no effect and ±100 for the full control effect; potency is the fitted concentration of half-maximal effect; tags give direction and shape of the fitted curve.
Note: nearly all actives have a fitted effect of over 75% in size.
